Activation data for 85 compounds are collected here from PubChem BioAssay AID1346428 (National Center for Advancing Translational Sciences (NCATS), 2018).

SMILES strings stand for the structures. Where “and” joins values, the source holds several entries; their conditions need not be identical. Equal entries are not always repeated. Among all 48,000 compounds or so, about 1,200 (2.5%) were called active. About 2% were inconclusive and are not listed.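 How the source made its calls: active means activation of at least 60% and not above a set upper limit (about 1 call in 100 departs from these limits); inconclusive means activation of 40% to 60%, or above that upper limit; inactive means activation under 40%.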 The list shows a part of the results.

Sequence of UniProt O75388 (O75388 whole entry, looked up): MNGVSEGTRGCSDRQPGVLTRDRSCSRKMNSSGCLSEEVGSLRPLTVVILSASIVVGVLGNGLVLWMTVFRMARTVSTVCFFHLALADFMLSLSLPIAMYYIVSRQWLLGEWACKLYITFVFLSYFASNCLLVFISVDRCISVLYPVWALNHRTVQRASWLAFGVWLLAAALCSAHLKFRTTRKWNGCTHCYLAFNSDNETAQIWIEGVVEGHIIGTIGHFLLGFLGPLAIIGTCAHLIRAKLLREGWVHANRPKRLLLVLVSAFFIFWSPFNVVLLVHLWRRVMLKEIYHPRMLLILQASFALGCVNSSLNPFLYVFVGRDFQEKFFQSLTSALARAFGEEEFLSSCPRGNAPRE

For the assay, the target named is Probable G-protein coupled receptor 32 (Homo sapiens) (UniProt O75388). The assay is described as follows: qHTS for Agonists of Human Resolvin D1 Receptor DRV1. Further: 0% is about no effect. The conditions noted are these: CHO-K1 GPR32 beta-arrestin PathHunter luminescence, 90 min; at 76.9 µM; hits give high values; zero percent set by DMSO-only wells. In a few lines:
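Step 1: seed CHO-K1 GPR32 beta-arrestin cells, 2,500/well, overnight at 37 °C. Step 2: add compounds, 90 min at 37 °C. Step 3: detection reagent, 1 h ambient, then luminescence.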
Regarding `C[C@H](Cc1ccc(O)c(O)c1)[C@@H](C)Cc1ccc(O)c(O)c1`, the activation was inactive: 30.1%. In the case of `Cn1c(=O)c2nc(SCC(=O)Nc3cc(Cl)cc(Cl)c3)n(C)c2n(C)c1=O`, the activation was inactive: -11.1%. For the compound `CCc1ccc(NC(=O)CSc2c(C)cnc3c2c(=O)n(C)c(=O)n3C)cc1`, the activation was inactive: 3.16%. As to `Cc1nc2sccn2c(=O)c1S(=O)(=O)NCc1ccc(F)cc1`, the activation was inactive: 0.583%. Regarding `Cc1ccc(Cn2c(CNS(=O)(=O)c3ccc(C(C)(C)C)cc3)nc3cccnc32)cc1`, the activation is inactive: -31.2%. Turning to `COc1ccccc1CNc1nc2ccccc2c2nc(-c3cccnc3)nn12`, the activation is inactive: -10.9%. Next, `O=C(COc1ccccc1Cl)OCc1cc(=O)n2nc(C3CC3)sc2n1`: inactive: -3.62%; `COc1ccc(NC(=O)C(=O)NCCc2ccc(OC)c(OC)c2)c(OC)c1`: inactive: 9.02%. In the case of `Cc1c(NC(=O)c2cc(-c3ccc(O)cc3)on2)c(=O)n(-c2ccccc2)n1C`, the activation was inactive: -8.05%. Take `COCCCNC(=O)c1cnn(-c2ccccc2Cl)c1C1CCN(C(=O)OC(C)(C)C)CC1`: the activation was inactive: -15.6%. In the case of `COc1ccc(CCNC(=O)c2cccc(-n3c(C)nc4cccnc43)c2)cc1OC`, the activation was inactive: 2.05%. In the case of `COc1ccc(-c2cc3nc(-c4ccc(Br)cc4)cc(C(F)(F)F)n3n2)cc1`, the activation was inactive: -2.4%. Next, `COC(=O)c1ccc(NC(=O)CSc2cn(CC(=O)N3CCCCCC3)c3ccccc23)cc1`: inactive: -14.8%; `COc1ccc(CNC(=O)C2CCN(C(=O)c3ccc(-n4ccc5ccccc54)s3)CC2)cc1`: inactive: -0.76%. For the compound `CCN(CC)c1nn2c(=O)c(C(=O)NCc3cccc(C)c3)cnc2s1`, the activation is inactive: -6.67%.

For the compound `COc1ccc(Cn2c(SCc3ccc(C(=O)NCCc4ccccc4)cc3)nc3cccnc32)cc1`, the activation was inactive: 22.9%.

Take `Cn1c(=O)n(C/C=C/c2ccccc2)c(=O)c2c1nc1n2CCN1c1ccc(Cl)cc1`: the activation was inactive: -0.165%. For the compound `Cc1nn(C(=O)c2cccc(F)c2)c(C)c1S(=O)(=O)N1CCCCCC1`, the activation was inactive: 3.63%. For `CCC(C)NC(=O)Cn1c(=O)n(Cc2ccc(C(=O)NCc3ccccc3OC)cc2)c(=O)c2ccccc21` (stereo not given), the activation is inactive: -3.45%. For `CCCN1CCN(CCCNC(=O)Cn2c(-c3cccs3)cc3ccccc32)CC1`, the activation is inactive: 1.41%. For the compound `Cc1ccc(NC(=O)CSc2ncnc3c2sc2ccccc23)cc1C`, the activation is inactive: -10.7%. Consider `CCn1cc(S(=O)(=O)c2ccc(C)cc2)c(=O)c2cc(F)c(N3CCCCCC3)cc21`, for which the activation is inactive: 0.644%.

Consider `CCOC(=O)c1[nH]c(C)c(CCC(=O)NCc2ccccc2C)c1C`, for which the activation is inactive: -13.9%. For the compound `Cn1nc(-c2ccccc2F)c2cc(C(=O)N3CCN(c4ccc(F)cc4)CC3)sc21`, the activation was inactive: 20.3%. The same measure for `Cc1ccc(C)c(NC(=O)CSc2nc(=O)n(Cc3ccccn3)c3c2CCC3)c1`: inactive: -1.14%; for `Cc1cccc(N2CCN(S(=O)(=O)c3ccc(F)c(C(=O)Nc4ccc(C(C)C)cc4)c3)CC2)c1C`: inactive: -6.45%; for `COc1ccc(OC)c(Nc2ncnc3c2cnn3-c2ccc(C)cc2)c1`: inactive: 36%. As for `Cc1cc(C)cc(NS(=O)(=O)c2ccc3[nH]cc(C(=O)N4CCCCCC4)c(=O)c3c2)c1`, the activation was inactive: 7.52%. Regarding `COc1ccc(-c2noc(CN3CCN(c4cccc(Cl)c4)CC3)n2)cc1`, the activation is inactive: 15.6%. In the case of `NCCc1ccc(O)c(O)c1`, the activation was inactive: -1.56% and inactive: -0.525%.

As to `C#CC(C)(CC)NC(=O)c1cc2c(n(-c3ccc(Cl)cc3)c1=O)CC(C)(C)CC2=O` (stereo not given), the activation is inactive: -6.44%. Turning to `O=C(C1CCC1)N1CCCc2cc(S(=O)(=O)Nc3ccc(F)cc3)ccc21`, the activation is inactive: -8.6%. On to `COc1ccccc1N(CC(=O)Nc1ccc(C)c(Cl)c1)S(=O)(=O)c1ccc(C)cc1`, for which the activation is inactive: -0.0267%.

As to `CCOc1ccc(CC(=O)NC2CC(=O)N(c3ccc(C)c(C)c3)C2)cc1` (stereo not given), the activation is inactive: 2.63%. As to `CC(=O)N1c2ccccc2C(=O)C1N1CCN(c2cccc(C(F)(F)F)c2)CC1` (stereo not given), the activation was inactive: -48.6%. Turning to `CC(=O)N1CCc2cc(Br)cc(S(=O)(=O)N3CCN(c4cc(C)ccc4C)CC3)c21`, the activation is inactive: 2.06%. Next, `COCCn1c(C)cc(O)c(C(c2ccc(C)cc2)N2CCCCC2)c1=O` (stereo not given): inactive: -15.1%; `Cc1cccc(CNC(=O)CCCN2C(=O)CCn3nc(-c4cn(C)c5ccccc45)cc32)c1`: inactive: -7.86%; `Cn1cc(-c2cc3n(n2)CCC(=O)N3CC(=O)O)c2ccccc21`: inactive: -19.4%.

In the case of `Cc1ccccc1OCC(=O)N(Cc1ccc(N(C)C)cc1)CC1CCCO1` (stereo not given), the activation is inactive: -24.8%. On to `OCc1nc2ccccc2n1Cc1c(F)cccc1Cl`, for which the activation was inactive: -9.06%. Next, `CCN1CCN(c2c(S(=O)(=O)c3ccccc3)cnc3ccc(Cl)cc23)CC1`: inactive: -17%; `CCN(CC)c1ccc(NC(=O)c2cc(S(=O)(=O)N3CCc4ccccc43)cn2C)c(C)c1`: inactive: -22.7%; `CCC(=O)NCC(c1ccc2c(c1)OCO2)N1CCN(c2ccccc2)CC1` (stereo not given): inactive: -13.2%. In the case of `CCOc1ccc(NCc2cccn2-c2nnc(N3CCC(C(=O)NCCc4ccc(OC)c(OC)c4)CC3)s2)cc1`, the activation was inactive: -25%. As to `COc1ccc(-c2[nH]nc3nc(-c4cc(OC)c(OC)c(OC)c4)cc(C(=O)O)c23)cc1`, the activation is inactive: -18%. For `COc1ccc(N2CCN(C(=O)CCc3c(C)nc4cc(-c5ccc(Cl)cc5)nn4c3C)CC2)cc1`, the activation was inactive: -1.8%. Turning to `Cc1ccc(CCNC(=O)c2cn(C)c3ccc(S(=O)(=O)N4CCCCC4)cc3c2=O)cc1`, the activation was inactive: -0.835%. Turning to `CCCS(=O)(=O)N1CCCC(C(=O)NCCCOC)C1` (stereo not given), the activation is inactive: -5.54%. Regarding `Cc1ccccc1CNC(=O)C(=O)NCC(c1ccco1)S(=O)(=O)c1ccccc1` (stereo not given), the activation was inactive: -16.4%. For the compound `COc1ccc(C(=O)Nc2nnc(S(=O)(=O)N(C)c3ccc(Cl)cc3)s2)cc1OC`, the activation is inactive: 11.6%.

Turning to `Cc1ccc2[nH]c(CSc3nnc(NC(=O)c4ccccc4C)s3)cc(=O)c2c1`, the activation was inactive: 46.8%. As to `CCCCCC=CCC=CCCCCCCCC(=O)OCC`, the activation is active: 63.3%. For `O=C(NCc1ccccc1Cl)c1cc2ccccc2o1`, the activation is inactive: 22.3%. With `COc1cc(OC)cc(C(=O)Nc2ccc3c(c2)N(C2CCCC2)C(=O)c2ccccc2S3)c1`, the activation is inactive: -10.5%. For `O=C(CSc1nc2ccccc2nc1Cc1ccccc1)N1CCCCC1`, the activation was inactive: 34.4%. As for `CCc1cccc(NC(=O)CCS(=O)(=O)c2cc(Br)cc3c2N(C(C)=O)CC3)c1`, the activation was inactive: -12.4%.

`COc1cc(-c2nc3ncccn3c2Nc2ccc(C)cc2C)ccc1O`: the activation is inactive: -28.6%. Turning to `Cc1ccc(C)c(N2CCN(S(=O)(=O)c3c(C)nc4sccn4c3=O)CC2)c1`, the activation was inactive: 6.01%. As for `CCOc1ccccc1NC(=O)N1CCN(Cc2nc3ccc(C)cc3o2)CC1`, the activation was inactive: 6.23%. With `CCc1ccc(C2CC(=O)Nc3c2c(C)nn3-c2nc(C)cc(C)n2)cc1` (stereo not given), the activation was inactive: -16.5%. As for `CCOc1ccc(-c2nnc(SCC(=O)NCc3ccccc3)nc2-c2ccc(OCC)c(OC)c2)cc1OC`, the activation was inactive: -18.2%.

On to `CCCCOc1cccc(C(=O)Nc2ccc3oc(-c4cccnc4)nc3c2)c1`, for which the activation is inactive: 12%. For the compound `Cc1cc(C)cc(-n2c(SCC(N)=O)nc3c(oc4ccccc43)c2=O)c1`, the activation is inactive: -1.5%. As for `COc1cccc(Nc2c3c(nc4nncn24)CCC3)c1`, the activation was inactive: -8.02%.

As for `CCOc1ccccc1NC(=O)Cn1cnc2sc(C)c(S(=O)(=O)N3CCC(C)CC3)c2c1=O`, the activation is inactive: -9.19%.

Take `CC1=Nc2cc(C(=O)NC3CCCC3)ccc2Sc2ccc(C)cc21`: the activation was inactive: -14.4%.

Take `COC(=O)c1cc(C)nc2c1c(=O)nc(SCc1cccc(C)c1)n2C1CC1`: the activation was inactive: -11.4%. Take `Cc1nn(-c2nc(-c3ccc(F)cc3)cc(C(F)(F)F)n2)c(C)c1Br`: the activation is inactive: -10.2%. On to `COc1ccc(NC(=O)Cn2c(C)cc3ccccc3c2=O)c(OC)c1`, for which the activation is inactive: -8.76%. Turning to `COc1cccc(C(=O)Nc2ccccc2C(=O)OCc2cc(=O)n3c(C)csc3n2)c1`, the activation is inactive: -14.4%. As to `O=C(Nc1ccc(N2CCC(c3ccccc3)C2)c(C(=O)O)c1)c1ccc(Cl)cc1` (stereo not given), the activation is inactive: 3.99%.

As for `COc1cccc(NC(=O)CCc2c(C)nc3c4cccnc4nn3c2C)c1`, the activation is inactive: -4.33%. Regarding `CCOc1ccc(Oc2nc(NCC(C)C)nc(NC(C)(C)C)n2)nn1`, the activation was inactive: -13.7%. `CCOC(=O)c1ccccc1NC(=O)Nc1cc2c(cc1N1CCCCC1)n(C)c(=O)n2C`: the activation was inactive: 29.2%.

Consider `CCOc1ccc(CNC(=O)CCS(=O)(=O)c2cc3c(cc2Cl)NC(=O)CO3)cc1OC`, for which the activation is inactive: -15.1%. For the compound `Cc1cccc(NC(=O)CN2C(=O)c3cccnc3Oc3ccc(Cl)cc32)c1C`, the activation is inactive: -29.3%.

Regarding `CSc1ccc(CCNC(=O)CCCn2nc(C)c3sc4ccccc4c3c2=O)cc1`, the activation was inactive: -18.2%. `CC(=O)c1ccc(NC(=O)CC2Nc3cccc4cccc(c34)NC2=O)cc1` (stereo not given): the activation was inactive: 32.5%.

With `COc1ccccc1OCC(=O)N(Cc1ccc(Cl)cc1)CC1CCCO1` (stereo not given), the activation was inactive: -11.1%. As for `NC(N)=NC(N)=Nc1ccccc1`, the activation is inactive: 1.4%.

With `CCc1cccc(CC)c1NC(=O)c1ccc2c(c1)CCN2S(=O)(=O)c1ccccc1`, the activation was inactive: 0.0321%. As to `COCCCNc1ncnc2onc(-c3ccc(F)cc3)c12`, the activation is inactive: 35.8%. As to `CC(C)CCNC(=O)Nc1ccc2c(c1)N(C)C(=O)c1ccccc1S2`, the activation was inactive: 16.1%. Turning to `COc1cccc(NC(=O)Cn2cnc3c(nc4n3CCCCC4)c2=O)c1`, the activation was inactive: 7.2%.
